Laboratory results as given in the supplement of paper PMC11125491.
± gives the standard deviation of the averaged measurements. Growth of baker's yeast expressing single-residue variants of Pneumocystis jirovecii dihydrofolate reductase in 8.8 or 44 µM methotrexate (about 75% and 90% inhibition of the wild type). Selection coefficient per generation; 0 = like wild type, above 0 = less sensitive, below 0 = more sensitive or loss of function. No active / inactive call per row; the paper calls resistant above 0.220 (8.8 µM) or 0.243 (44 µM) together with a significance test. At 44 µM about 15% of codons end with one read or none, so the lowest values are floors (replicate rank correlation 0.74; 0.94 at 8.8 µM).

B1: UniProt A0EPZ9; numbered along this chain (parent)
chain: MDWQKSLTLIVALTLSRGIGLKNDLPWKLKSDMMFFSRVTSGLLVTRSTGQMNVVLMGRKTWESLPAHSRPLKNRINVVISRQEVLDLGGGAYHARSLDDALALLSQIYDSTSKIQLNRVFVIGGGELCKAAMEHSRLNRIIATVIHNEVDCDVFFPIDFRSSQSCLPWRKQDHSVLEAWVGSKVPQGKINENGFIYEFEMWIRDI

Variants of: B1
Assay: selection coefficient against synonymous wild-type codons (log2 per generation); higher = faster growth than wild type
Details: with Saccharomyces cerevisiae carrying the variant on a plasmid
Description: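 Pooled growth of yeast carrying single-residue variants of P. jirovecii dihydrofolate reductase (own DFR1 gene intact), two passages at 30 °C, three cultures, sequenced before and after. Codons with under 15 starting reads are left out; codons of one change are averaged.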

Variant | selection coefficient against synonymous wild-type codons (log2) (methotrexate 8.8 µM) | selection coefficient against synonymous wild-type codons (log2) (methotrexate 44 µM)
MDWQKSLTLIVALTLSRGIGLKNDLPWKLKSDMMFFSRVTSGLLVTRSTGQMNVVLMGRKTWESLPAHSRPLKNRINVGISRQEVLDLGGGAYHARSLDDALALLSQIYDSTSKIQLNRVFVIGGGELCKAAMEHSRLNRIIATVIHNEVDCDVFFPIDFRSSQSCLPWRKQDHSVLEAWVGSKVPQGKINENGFIYEFEMWIRDI [V79G] | -0.784 ± 0.095 | -0.336 ± 0.044
MDWQKSLTLIVALTLSRGIGLKNDLPWKLKSDMMFFSRVTSGLLVTRSTGQMNVVLMGRKTWESLPAHSRPLKNRINVHISRQEVLDLGGGAYHARSLDDALALLSQIYDSTSKIQLNRVFVIGGGELCKAAMEHSRLNRIIATVIHNEVDCDVFFPIDFRSSQSCLPWRKQDHSVLEAWVGSKVPQGKINENGFIYEFEMWIRDI [V79H] | -0.507 ± 0.038 | -0.00599 ± 0.099
MDWQKSLTLIVALTLSRGIGLKNDLPWKLKSDMMFFSRVTSGLLVTRSTGQMNVVLMGRKTWESLPAHSRPLKNRINVIISRQEVLDLGGGAYHARSLDDALALLSQIYDSTSKIQLNRVFVIGGGELCKAAMEHSRLNRIIATVIHNEVDCDVFFPIDFRSSQSCLPWRKQDHSVLEAWVGSKVPQGKINENGFIYEFEMWIRDI [V79I] | -0.0155 ± 0.12 | 0.149 ± 0.055
MDWQKSLTLIVALTLSRGIGLKNDLPWKLKSDMMFFSRVTSGLLVTRSTGQMNVVLMGRKTWESLPAHSRPLKNRINVKISRQEVLDLGGGAYHARSLDDALALLSQIYDSTSKIQLNRVFVIGGGELCKAAMEHSRLNRIIATVIHNEVDCDVFFPIDFRSSQSCLPWRKQDHSVLEAWVGSKVPQGKINENGFIYEFEMWIRDI [V79K] | -0.65 ± 0.1 | -0.191 ± 0.072
MDWQKSLTLIVALTLSRGIGLKNDLPWKLKSDMMFFSRVTSGLLVTRSTGQMNVVLMGRKTWESLPAHSRPLKNRINVLISRQEVLDLGGGAYHARSLDDALALLSQIYDSTSKIQLNRVFVIGGGELCKAAMEHSRLNRIIATVIHNEVDCDVFFPIDFRSSQSCLPWRKQDHSVLEAWVGSKVPQGKINENGFIYEFEMWIRDI [V79L] | -0.572 ± 0.11 | -0.113 ± 0.042
MDWQKSLTLIVALTLSRGIGLKNDLPWKLKSDMMFFSRVTSGLLVTRSTGQMNVVLMGRKTWESLPAHSRPLKNRINVMISRQEVLDLGGGAYHARSLDDALALLSQIYDSTSKIQLNRVFVIGGGELCKAAMEHSRLNRIIATVIHNEVDCDVFFPIDFRSSQSCLPWRKQDHSVLEAWVGSKVPQGKINENGFIYEFEMWIRDI [V79M] | -0.649 ± 0.23 | -0.248 ± 0.029
MDWQKSLTLIVALTLSRGIGLKNDLPWKLKSDMMFFSRVTSGLLVTRSTGQMNVVLMGRKTWESLPAHSRPLKNRINVPISRQEVLDLGGGAYHARSLDDALALLSQIYDSTSKIQLNRVFVIGGGELCKAAMEHSRLNRIIATVIHNEVDCDVFFPIDFRSSQSCLPWRKQDHSVLEAWVGSKVPQGKINENGFIYEFEMWIRDI [V79P] | -0.672 ± 0.03 | -0.17 ± 0.047
MDWQKSLTLIVALTLSRGIGLKNDLPWKLKSDMMFFSRVTSGLLVTRSTGQMNVVLMGRKTWESLPAHSRPLKNRINVQISRQEVLDLGGGAYHARSLDDALALLSQIYDSTSKIQLNRVFVIGGGELCKAAMEHSRLNRIIATVIHNEVDCDVFFPIDFRSSQSCLPWRKQDHSVLEAWVGSKVPQGKINENGFIYEFEMWIRDI [V79Q] | -0.593 ± 0.071 | -0.0914 ± 0.011
MDWQKSLTLIVALTLSRGIGLKNDLPWKLKSDMMFFSRVTSGLLVTRSTGQMNVVLMGRKTWESLPAHSRPLKNRINVRISRQEVLDLGGGAYHARSLDDALALLSQIYDSTSKIQLNRVFVIGGGELCKAAMEHSRLNRIIATVIHNEVDCDVFFPIDFRSSQSCLPWRKQDHSVLEAWVGSKVPQGKINENGFIYEFEMWIRDI [V79R] | -0.595 ± 0.095 | -0.144 ± 0.2
MDWQKSLTLIVALTLSRGIGLKNDLPWKLKSDMMFFSRVTSGLLVTRSTGQMNVVLMGRKTWESLPAHSRPLKNRINVSISRQEVLDLGGGAYHARSLDDALALLSQIYDSTSKIQLNRVFVIGGGELCKAAMEHSRLNRIIATVIHNEVDCDVFFPIDFRSSQSCLPWRKQDHSVLEAWVGSKVPQGKINENGFIYEFEMWIRDI [V79S] | -0.645 ± 0.1 | -0.142 ± 0.11
MDWQKSLTLIVALTLSRGIGLKNDLPWKLKSDMMFFSRVTSGLLVTRSTGQMNVVLMGRKTWESLPAHSRPLKNRINVTISRQEVLDLGGGAYHARSLDDALALLSQIYDSTSKIQLNRVFVIGGGELCKAAMEHSRLNRIIATVIHNEVDCDVFFPIDFRSSQSCLPWRKQDHSVLEAWVGSKVPQGKINENGFIYEFEMWIRDI [V79T] | -0.755 ± 0.057 | -0.294 ± 0.055
MDWQKSLTLIVALTLSRGIGLKNDLPWKLKSDMMFFSRVTSGLLVTRSTGQMNVVLMGRKTWESLPAHSRPLKNRINVWISRQEVLDLGGGAYHARSLDDALALLSQIYDSTSKIQLNRVFVIGGGELCKAAMEHSRLNRIIATVIHNEVDCDVFFPIDFRSSQSCLPWRKQDHSVLEAWVGSKVPQGKINENGFIYEFEMWIRDI [V79W] | -0.814 ± 0.095 | -0.123 ± 0.49
MDWQKSLTLIVALTLSRGIGLKNDLPWKLKSDMMFFSRVTSGLLVTRSTGQMNVVLMGRKTWESLPAHSRPLKNRINVYISRQEVLDLGGGAYHARSLDDALALLSQIYDSTSKIQLNRVFVIGGGELCKAAMEHSRLNRIIATVIHNEVDCDVFFPIDFRSSQSCLPWRKQDHSVLEAWVGSKVPQGKINENGFIYEFEMWIRDI [V79Y] | -0.505 ± 0.037 | -0.00391 ± 0.071
MDWQKSLTLIVALTLSRGIGLKNDLPWKLKSDMMFFSRVTSGLLVTRSTGQMNVVLMGRKTWESLPAHSRPLKNRINVVASRQEVLDLGGGAYHARSLDDALALLSQIYDSTSKIQLNRVFVIGGGELCKAAMEHSRLNRIIATVIHNEVDCDVFFPIDFRSSQSCLPWRKQDHSVLEAWVGSKVPQGKINENGFIYEFEMWIRDI [I80A] | -0.636 ± 0.1 | -0.133 ± 0.092
MDWQKSLTLIVALTLSRGIGLKNDLPWKLKSDMMFFSRVTSGLLVTRSTGQMNVVLMGRKTWESLPAHSRPLKNRINVVCSRQEVLDLGGGAYHARSLDDALALLSQIYDSTSKIQLNRVFVIGGGELCKAAMEHSRLNRIIATVIHNEVDCDVFFPIDFRSSQSCLPWRKQDHSVLEAWVGSKVPQGKINENGFIYEFEMWIRDI [I80C] | -0.63 ± 0.11 | -0.171 ± 0.053
